Where a chain is given by its changes, count along the chain named. In names and notes the source's numbering stands. ± gives the standard deviation of the averaged measurements. Laboratory Escherichia coli strains with one amino-acid change in an essential protein, pooled on minimal glucose agar with carbenicillin or gentamicin at twice the control MIC (plus kanamycin and chloramphenicol for the plasmids), 48 h. Fold change of barcode share against drug-free plates; higher = less susceptible. Active = above 20 in both replicates (the paper's putatively resistant). '<' = one read or none on drug, '>' = one read or none on a drug-free plate. Shares are relative, so most strains fall below 1 when a few take over. Listed are strains with at least 15 reads on both drug-free plates, and hits; most hits rest on fewer reference reads. Replicate rank correlation about 0.5. Edits are read from barcodes.

For this data set, the target named is Escherichia coli (laboratory strain). Description: barcode share on antibiotic plates over drug-free plates; higher = less susceptible. On the procedure: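 A pool of E. coli strains, each edited to carry one amino-acid change in an essential protein, was grown for 48 h on minimal glucose agar with or without antibiotic; strain barcodes were sequenced; mean of two replicates.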

Setting [1] is: antibiotic: carbenicillin, 2× MIC (3.1 µg/mL).
Where [2] appears, read: antibiotic: gentamicin, 2× MIC (MIC 0.45 µg/mL).

B1: purD L270A (protein)
chain: MKVLVIGNGGREHALAWKAAQSPLVETVFVAPGNAGTALEPALQNVAIGVTDIPALLDFAQNEKIDLTIVGPEAPLVKGVVDTFRAAGLKIFGPTAGAAQLEGSKAFTKDFLARHKIPTAEYQNFTEVEPALAYLREKGAPIVIKADGLAAGKGVIVAMTLEEAEAAVHDMLAGNAFGDAGHRIVIEEFLDGEEASFIVMVDGEHVLPMATSQDHKRVGDKDTGPNTGGMGAYSPAPVVTDDVHQRTMERIIWPTVKGMAAEGNTYTGFAYAGLMIDKQGNPKVIEFNCRFGDPETQPIMLRMKSDLVELCLAACESKLDEKTSEWDERASLGVVMAAGGYPGDYRTGDVIHGLPLEEVAGGKVFHAGTKLADDEQVVTNGGRVLCVTALGHTVAEAQKRAYALMTDIHWDDCFCRKDIGWRAIEREQN
Regarding B1, the “fold change of barcode share” value under setting [1] was 62.2 [active].

B2: purD V308A (protein)
chain: B1 chain with A270L, V308A
Turning to B2, the “fold change of barcode share” value is, setting by setting: under setting [1], 0.608 ± 0.13; under setting [2], 0.0064 ± 0.0047.

B3: purD M200A (protein)
chain: B1 chain with M200A, A270L
Consider B3, for which the “fold change of barcode share” value was determined as 1.07 ± 0.21 under setting [1] and 0.0108 ± 0.0076 under setting [2].

B4: purD L270Q (protein)
chain: B1 chain with A270Q
As to B4, under setting [1], the “fold change of barcode share” value is 104 [active].

B5: purD L270D (protein)
chain: B1 chain with A270D
For the protein B5, the “fold change of barcode share” value under setting [1] is > 121 [active].

B6: purD M200Q (protein)
chain: B1 chain with M200Q, A270L
B6: the “fold change of barcode share” value under setting [1] was determined as 0.758 ± 0.077.

B7: purD L270P (protein)
chain: B1 chain with A270P
Regarding B7, the “fold change of barcode share” value under setting [1] was 90.2 [active].

B8: purD V308D (protein)
chain: B1 chain with A270L, V308D
As for B8, under setting [1], the “fold change of barcode share” value is 34.4 [active].

B9: purD V308W (protein)
chain: B1 chain with A270L, V308W
For B9, the “fold change of barcode share” value under setting [1] is 36.5 [active].

B10: purD V308Q (protein)
chain: B1 chain with A270L, V308Q
Consider B10, for which the “fold change of barcode share” value under setting [1] is 90.9 [active].

B11: purD V308P (protein)
chain: B1 chain with A270L, V308P
For the protein B11, the “fold change of barcode share” value under setting [1] was found to be 0.962 ± 0.25 and the “fold change of barcode share” value under setting [2] is 0.00501 ± 0.0012.

B12: purD L270W (protein)
chain: B1 chain with A270W
Take B12: the “fold change of barcode share” value under setting [1] was 82.8 [active].

The record behind these values is the supplement of paper PMC11876631.
